The values below come from the antibiotic and cytotoxicity screens of Wong et al. (2023).

Each structure is given as a SMILES string. This is one part of the list.

One assay relates to HSkMC. Kind of assay: cytotoxicity call (relative viability < 0.9). To be noted: 10 µM.
In another assay the test system is HepG2. In words: cytotoxicity call (relative viability < 0.9). The conditions noted are these: 10 µM.
Another assay relates to S. aureus RN4220. In words: growth inhibition call (relative growth <= 0.2). To be noted: 50 µM.

Consider `C=Cn1cnc2c1c(=O)n(C)c(=O)n2C`, for which the cytotoxicity call in the assay with HSkMC and in the assay on HepG2 was “inactive” throughout. Further, in the assay on S. aureus RN4220, the growth inhibition call was “inactive”.

Regarding `CCOC(=O)c1cc2c(c(-c3cccc(-c4cccc(F)c4)c3)n1)[C@H](CCO)N(S(=O)C(C)(C)C)C2` (some centres undefined), the cytotoxicity call in the assay on HSkMC and in the assay on HepG2 was “inactive” each time. For the same molecule, the growth inhibition call with S. aureus RN4220 is “inactive”.

In the case of `C[C@H](CO)N1C[C@H](C)[C@H](CN(C)S(=O)(=O)c2cccs2)Oc2c(NC(=O)c3ccncc3)cccc2C1=O`, the cytotoxicity call in the assay with HSkMC and with HepG2 was “inactive” in each case. Besides, the growth inhibition call in the assay with S. aureus RN4220 is “inactive”.

`C[C@@H]1CN([C@@H](C)CO)C(=O)c2cccc(NC(=O)c3ccc(-c4nccs4)cc3)c2O[C@@H]1CN(C)Cc1ccc(C(F)(F)F)cc1`: the cytotoxicity call in the assay with HSkMC is “inactive”. Also, the cytotoxicity call in the assay on HepG2 is “active”. Further, in the assay on S. aureus RN4220, the growth inhibition call was “inactive”.

On to `OC[C@@H]1Cc2ccccc2CN1`, for which the cytotoxicity call in the assay with HSkMC and in the assay on HepG2 was “inactive” in each case. Moreover, the growth inhibition call in the assay on S. aureus RN4220 is “inactive”.

Take `C[C@H](CO)N1C[C@H](C)[C@@H](CN(C)Cc2ccc(C(=O)Nc3ccccc3N)cc2)Oc2ccc(NC(=O)Nc3ccc(F)cc3)cc2C1=O`: the cytotoxicity call with HSkMC and with HepG2 was “inactive” in each case. Besides, the growth inhibition call in the assay with S. aureus RN4220 is “inactive”.

Take `C[C@@H]1CN([C@H](C)CO)C(=O)c2cccc(NC(=O)Nc3cccc4ccccc34)c2O[C@H]1CN(C)C(=O)Nc1ccc(F)cc1`: the cytotoxicity call in the assay on HSkMC and in the assay on HepG2 was “inactive” each time. Moreover, the growth inhibition call with S. aureus RN4220 is “inactive”.

For the molecule `COc1ccc(S(=O)(=O)Nc2ccc3c(c2)C(=O)N([C@@H](C)CO)C[C@@H](C)[C@@H](CN(C)Cc2ccncc2)O3)cc1`, the cytotoxicity call in the assay with HSkMC and in the assay with HepG2 was “inactive” throughout. Besides, in the assay on S. aureus RN4220, the growth inhibition call was “inactive”.

Regarding `Cc1noc(C)c1NC(=O)Nc1ccc2c(c1)C(=O)N([C@H](C)CO)C[C@H](C)[C@@H](CN(C)C(=O)Nc1ccc(C(F)(F)F)cc1)O2`, the cytotoxicity call in the assay with HSkMC and in the assay with HepG2 was “inactive” throughout. In addition, in the assay with S. aureus RN4220, the growth inhibition call was “inactive”.

Turning to `COc1ccc2c3c([nH]c2c1)[C@@H](CO)N(C[C@]13CCN(CC1)Cc1nccs1)C(=O)C1CCOCC1`, the cytotoxicity call in the assay with HSkMC and in the assay on HepG2 was “inactive” in each case. The growth inhibition call with S. aureus RN4220 is “inactive”.

In the case of `C[C@H](CO)N1C[C@H](C)[C@H](CN(C)Cc2ccncc2)OCCCC[C@H](C)Oc2ccc(NC(=O)c3ccccc3)cc2C1=O`, the cytotoxicity call in the assay on HSkMC and with HepG2 was “inactive” throughout. Besides, the growth inhibition call in the assay with S. aureus RN4220 was “inactive”.

Consider `C[C@@H]1CN([C@H](C)CO)C(=O)Cc2cc(NC(=O)CCN3CCOCC3)ccc2O[C@H]1CN(C)C(=O)Nc1ccc2c(c1)OCO2`, for which the cytotoxicity call with HSkMC and in the assay with HepG2 was “inactive” each time. Also, the growth inhibition call in the assay with S. aureus RN4220 was “inactive”.

In the case of `C[C@H](CO)N1C[C@H](C)[C@@H](CN(C)C(=O)Nc2ccccc2)OCCCC[C@H](C)Oc2ccc(NS(=O)(=O)c3cccs3)cc2C1=O`, the cytotoxicity call with HSkMC and with HepG2 was “inactive” in each case. Besides, the growth inhibition call in the assay on S. aureus RN4220 is “inactive”.

Turning to `CC(C)NC(=O)Nc1ccc2c(c1)C(=O)N([C@H](C)CO)C[C@@H](C)[C@H](CN(C)CC1CCCCC1)OCCCC[C@@H](C)O2`, the cytotoxicity call with HSkMC and with HepG2 was “inactive” in each case. The growth inhibition call in the assay on S. aureus RN4220 was “inactive”.

With `CC(C)NC(=O)Nc1ccc2c(c1)C(=O)N([C@H](C)CO)C[C@@H](C)[C@H](CN(C)Cc1ccc(Cl)c(Cl)c1)OCCCC[C@@H](C)O2`, the cytotoxicity call in the assay on HSkMC was “inactive”. In addition, the cytotoxicity call in the assay with HepG2 was “active”. For the same molecule, the growth inhibition call with S. aureus RN4220 is “inactive”.

Consider `Cc1noc(C)c1S(=O)(=O)N(C)C[C@@H]1Oc2ccc(NS(=O)(=O)c3cn(C)cn3)cc2CC(=O)N([C@H](C)CO)C[C@H]1C`, for which the cytotoxicity call in the assay on HSkMC and in the assay with HepG2 was “inactive” in each case. In the assay on S. aureus RN4220, the growth inhibition call was “inactive”.

Turning to `C[C@H]1CN([C@@H](C)CO)C(=O)c2cc(NC(=O)Nc3ccc(F)cc3)ccc2O[C@@H]1CN(C)CC1CCCCC1`, the cytotoxicity call in the assay with HSkMC is “inactive”. Further, in the assay with HepG2, the cytotoxicity call was “active”. The growth inhibition call in the assay on S. aureus RN4220 was “inactive”.

Consider `C[C@@H]1CCCCO[C@@H](CN(C)C(=O)Nc2ccc3c(c2)OCO3)[C@H](C)CN([C@H](C)CO)C(=O)c2cc(NC(=O)Nc3ccc4c(c3)OCO4)ccc2O1`, for which the cytotoxicity call with HSkMC and with HepG2 was “inactive” each time. For the same molecule, the growth inhibition call in the assay on S. aureus RN4220 is “inactive”.

`CC(C)NC(=O)Nc1ccc2c(c1)CC(=O)N([C@H](C)CO)C[C@@H](C)[C@H](CN(C)S(=O)(=O)c1cn(C)cn1)O2`: the cytotoxicity call with HSkMC and in the assay on HepG2 was “inactive” in each case. Further, the growth inhibition call with S. aureus RN4220 is “inactive”.

As for `C[C@H]1CN([C@@H](C)CO)S(=O)(=O)c2ccc(C#CCN(C)C)cc2O[C@@H]1CN(C)Cc1ccccn1`, the cytotoxicity call with HSkMC and with HepG2 was “inactive” throughout. Also, the growth inhibition call in the assay with S. aureus RN4220 was “inactive”.

For the molecule `Nc1ncnc2c1ncn2[C@@H]1O[C@H](CSCC[C@H](N)C(=O)O)[C@@H](O)[C@H]1O`, the cytotoxicity call in the assay with HSkMC and in the assay with HepG2 was “inactive” throughout. Moreover, in the assay with S. aureus RN4220, the growth inhibition call was “inactive”.

Consider `C[C@H](CO)N1C[C@H](C)[C@H](CN(C)C(=O)Nc2cccc3ccccc23)OCc2cnnn2CCCC1=O`, for which the cytotoxicity call in the assay with HSkMC and in the assay on HepG2 was “inactive” each time. In the assay with S. aureus RN4220, the growth inhibition call was “inactive”.

Take `COc1ccc(S(=O)(=O)Nc2cccc3c2O[C@H](CN(C)S(=O)(=O)c2cccs2)[C@@H](C)CN([C@@H](C)CO)C3=O)cc1`: the cytotoxicity call with HSkMC and in the assay on HepG2 was “inactive” in each case. Besides, the growth inhibition call with S. aureus RN4220 is “inactive”.

`COc1cccc(NC(=O)C[C@H]2CC[C@H]3[C@@H](COc4ccc(NC(=O)C5CCOCC5)cc4C(=O)N3C)O2)c1`: the cytotoxicity call in the assay on HSkMC and in the assay with HepG2 was “inactive” in each case. For the same molecule, the growth inhibition call with S. aureus RN4220 is “inactive”.

Turning to `C[C@H]1CN([C@@H](C)CO)C(=O)c2ccccc2-c2ccccc2CO[C@H]1CN(C)S(=O)(=O)c1ccc(C(F)(F)F)cc1`, the cytotoxicity call in the assay on HSkMC and in the assay with HepG2 was “inactive” throughout. Moreover, the growth inhibition call in the assay on S. aureus RN4220 was “inactive”.

As for `C[C@@H]1CCCCO[C@@H](CN(C)CC2CCCCC2)[C@H](C)CN([C@@H](C)CO)C(=O)c2cc(NC(=O)Cc3ccccc3)ccc2O1`, the cytotoxicity call in the assay with HSkMC and in the assay with HepG2 was “inactive” in each case. Moreover, the growth inhibition call in the assay with S. aureus RN4220 was “inactive”.

Turning to `COCCNC(=O)C[C@H]1CC[C@H]2[C@@H](COC[C@H](O)CN2C(=O)Nc2ccc3c(c2)OCO3)O1`, the cytotoxicity call with HSkMC and in the assay with HepG2 was “inactive” in each case. For the same molecule, the growth inhibition call with S. aureus RN4220 is “inactive”.

With `C[C@@H]1CN([C@H](C)CO)C(=O)Cc2cc(NS(=O)(=O)c3ccc(F)cc3)ccc2O[C@H]1CN(C)Cc1ccc(Cl)c(Cl)c1`, in the assay on HSkMC (human skeletal muscle cells), the cytotoxicity call was “inactive”. Besides, the cytotoxicity call in the assay on HepG2 was “active”. Besides, the growth inhibition call with S. aureus RN4220 is “inactive”.
